The list shows a part of the results. These are noisy estimates, calculated here from bound and input reads.

The target of the experiment is T1, Pho4 (S. cerevisiae) (UniProt P07270).
T1 sequence: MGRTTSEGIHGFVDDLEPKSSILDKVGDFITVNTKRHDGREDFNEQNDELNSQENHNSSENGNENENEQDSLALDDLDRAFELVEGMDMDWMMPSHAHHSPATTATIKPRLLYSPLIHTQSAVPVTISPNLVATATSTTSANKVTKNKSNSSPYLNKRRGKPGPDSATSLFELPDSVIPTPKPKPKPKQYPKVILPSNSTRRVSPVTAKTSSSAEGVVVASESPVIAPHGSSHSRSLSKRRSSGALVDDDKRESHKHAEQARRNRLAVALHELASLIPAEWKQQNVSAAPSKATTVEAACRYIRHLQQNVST
Description: relative binding free energy (BET-seq); higher = weaker binding. The note with it: reference: library average.
In the case of ATAAACACGTGGAAGT, the “relative binding free energy” value was found to be 0.377 kJ/mol. In the case of TTTCACACGTGTGTTC it was 0.46 kJ/mol; in that of AGGGGCACGTGGACAG, -0.795 kJ/mol.

Consider GTGGACACGTGGTTCT, for which the “relative binding free energy” value came to 0.0837 kJ/mol. The result for TATTTCACGTGATCTT reads 0.669 kJ/mol; that for ATTTGCACGTGAGGAT, 0.753 kJ/mol; that for CTGGACACGTGCGGGT, -0.209 kJ/mol. In the case of GTGAGCACGTGTGTAG it was -0.167 kJ/mol; in that of TTAATCACGTGTTTTA, 0.293 kJ/mol; in that of CGTTGCACGTGTTGAT, 0.251 kJ/mol. In the case of TTTGCCACGTGGGATA it was -0.795 kJ/mol. Regarding AGAGACACGTGTATTG, the “relative binding free energy” value was 0.0837 kJ/mol. The result for ATTGGCACGTGCAGTG reads -0.879 kJ/mol; that for TTACGCACGTGTTGTG, -0.711 kJ/mol; that for TAGGACACGTGGAGGT, 0.126 kJ/mol. The result for TTATACACGTGGTCAG reads -0.126 kJ/mol; that for GGTAACACGTGGTATA, -0.46 kJ/mol. In the case of GTGAACACGTGTCGGG it was 0.126 kJ/mol; in that of ATCTTCACGTGGTAGA, 1.55 kJ/mol; in that of AGGTGCACGTGGTGAC, -1 kJ/mol.

In the case of GCTGTCACGTGTTAGG, the “relative binding free energy” value was found to be 0.293 kJ/mol.

Regarding ATGGACACGTGGTTGG, the “relative binding free energy” value amounted to 0.167 kJ/mol. Regarding GTAGTCACGTGAAGGG, the “relative binding free energy” value is 1.3 kJ/mol. The result for TATTTCACGTGTTTCA reads 0.753 kJ/mol; that for CAGTTCACGTGGTGTT, 0.962 kJ/mol; that for CTGATCACGTGTGTTT, 0.628 kJ/mol. As to TTTTCCACGTGGTTTG, the “relative binding free energy” value is 0 kJ/mol. In the case of AGTGCCACGTGTAAGG it was 0.0418 kJ/mol. Consider GTGGGCACGTGTGTAA, for which the “relative binding free energy” value was -0.335 kJ/mol.

Consider TTCATCACGTGTAGGA, for which the “relative binding free energy” value was 0.795 kJ/mol.

With AAACTCACGTGGGGTG, the “relative binding free energy” value worked out at 0.209 kJ/mol. On to TGTTGCACGTGCGTCG, for which the “relative binding free energy” value is -0.418 kJ/mol. As for AGTCGCACGTGGGATG, the “relative binding free energy” value is -0.711 kJ/mol. In the case of TGTAGCACGTGCGAGT it was -0.0837 kJ/mol.

As to GGCGTCACGTGTATGC, the “relative binding free energy” value came to 0.92 kJ/mol. On to CGTTTCACGTGATTGT, for which the “relative binding free energy” value turned out to be 1.38 kJ/mol.

For the sequence ATTAGCACGTGTATTA, the “relative binding free energy” value was -0.628 kJ/mol. Consider GGTGACACGTGTGTGC, for which the “relative binding free energy” value was 0.335 kJ/mol. For TGGGACACGTGTTCAT, the “relative binding free energy” value came to 0.126 kJ/mol. In the case of AGGGTCACGTGATAAG it was 0.46 kJ/mol; in that of ATTGGCACGTGGATGT, -0.418 kJ/mol; in that of AGGTGCACGTGAACGT, 1.21 kJ/mol. In the case of TTCGGCACGTGAGATG it was 0.544 kJ/mol; in that of TGCTTCACGTGTAAGT, 0.753 kJ/mol. In the case of CGGATCACGTGGAGGG it was 1.21 kJ/mol.

Consider GCGGTCACGTGGGTTT, for which the “relative binding free energy” value is -0.293 kJ/mol.

For CCTGTCACGTGGGTGT, the “relative binding free energy” value is -0.879 kJ/mol. In the case of ATTTGCACGTGTCTGT, the “relative binding free energy” value worked out at 0.0837 kJ/mol.

Turning to GGCTGCACGTGTTCGG, the “relative binding free energy” value was found to be 0.293 kJ/mol. The result for TATCTCACGTGGTTGT reads 0.335 kJ/mol; that for AGCTGCACGTGGGGTT, -0.962 kJ/mol. In the case of AGTACCACGTGGGCGG it was -1.21 kJ/mol. For ATTTACACGTGCTGTT, the “relative binding free energy” value was -0.0418 kJ/mol. The result for GGTTCCACGTGTCTGT reads 0.502 kJ/mol. For the sequence TTGAGCACGTGATTTG, the “relative binding free energy” value came out at 0.335 kJ/mol.

TATTTCACGTGGTTGG: the “relative binding free energy” value worked out at 1.3 kJ/mol. On to ATTGTCACGTGGGAGG, for which the “relative binding free energy” value is 0.126 kJ/mol. Regarding TTTTTCACGTGTTAAG, the “relative binding free energy” value stood at 1.21 kJ/mol. The result for ATTCCCACGTGGGGGG reads -1.21 kJ/mol; that for CCGTGCACGTGGGAGG, -0.0418 kJ/mol. Turning to TTTTTCACGTGCCATT, the “relative binding free energy” value is 0.962 kJ/mol.

Turning to CAGGACACGTGATTGT, the “relative binding free energy” value is 0.753 kJ/mol. With TTGTACACGTGGCAAT, the “relative binding free energy” value was determined as 0 kJ/mol. Consider CTCGTCACGTGGATGT, for which the “relative binding free energy” value was 0.0418 kJ/mol.

With TTTGTCACGTGCGTTC, the “relative binding free energy” value was 0.795 kJ/mol.

With GAGGTCACGTGGGGGG, the “relative binding free energy” value worked out at 0.293 kJ/mol.

For the sequence CATGGCACGTGCTGTT, the “relative binding free energy” value is -0.837 kJ/mol. For CGATTCACGTGTATTG, the “relative binding free energy” value came to 0.669 kJ/mol. In the case of GGGCACACGTGGTGGT, the “relative binding free energy” value is 0.126 kJ/mol.

On to GGTTCCACGTGGAGTG, for which the “relative binding free energy” value is -0.544 kJ/mol.

With GAATGCACGTGTTGTC, the “relative binding free energy” value is 0.502 kJ/mol. The result for CATTGCACGTGTTTTA reads 0.209 kJ/mol; that for GCGTTCACGTGTGTCG, 1.26 kJ/mol. In the case of AGTGTCACGTGCCGTT it was -0.377 kJ/mol; in that of GTAATCACGTGTGCGG, 0.669 kJ/mol. AGGCCCACGTGGGATG: the “relative binding free energy” value is -0.628 kJ/mol.

TATTGCACGTGTACAG: the “relative binding free energy” value is -0.335 kJ/mol.

TGATGCACGTGCGAGG: the “relative binding free energy” value was -0.418 kJ/mol. Regarding GGCGTCACGTGGGTGT, the “relative binding free energy” value was -0.0418 kJ/mol. With AGTGCCACGTGGGAGT, the “relative binding free energy” value is -1.05 kJ/mol.

Turning to ATTTTCACGTGCATTG, the “relative binding free energy” value came to 1.21 kJ/mol. For GGTGCCACGTGGTGTC, the “relative binding free energy” value is -0.669 kJ/mol. With ATTAACACGTGGGTAA, the “relative binding free energy” value was -0.753 kJ/mol. The result for GCTAGCACGTGAGGTT reads 0.837 kJ/mol; that for TCCGTCACGTGGTTGG, -0.0418 kJ/mol. Take GATGTCACGTGATATT: the “relative binding free energy” value turned out to be 1.09 kJ/mol. Take ATTGTCACGTGAAGGT: the “relative binding free energy” value is 1 kJ/mol. In the case of TAGTGCACGTGGGCAG it was -0.92 kJ/mol; in that of GGCTGCACGTGCTGGT, -0.0837 kJ/mol. The result for TGTCACACGTGCGGTT reads 0.335 kJ/mol. The result for GGGTGCACGTGGCGCT reads -0.962 kJ/mol; that for TATTGCACGTGGTGCG, -0.377 kJ/mol. TTACGCACGTGTGTGG: the “relative binding free energy” value is -0.46 kJ/mol. As to GGATTCACGTGTGCGC, the “relative binding free energy” value was 1.26 kJ/mol. With TTAAGCACGTGTGCGT, the “relative binding free energy” value was 0.251 kJ/mol. The result for TTGAACACGTGCTAGG reads 0.167 kJ/mol; that for AATAGCACGTGGTGCG, -0.46 kJ/mol. The result for TGAGTCACGTGGTAAT reads 0.753 kJ/mol.

Regarding TCTAGCACGTGGTATG, the “relative binding free energy” value was -0.879 kJ/mol.

Turning to AGGAGCACGTGTGGGG, the “relative binding free energy” value is -0.126 kJ/mol.

As to ATGGGCACGTGGCTTA, the “relative binding free energy” value is -0.669 kJ/mol. The result for CTTGGCACGTGGATTA reads -0.293 kJ/mol. The result for CTAAGCACGTGATGGG reads 0.377 kJ/mol. As to AGTTGCACGTGATTGT, the “relative binding free energy” value is 0.544 kJ/mol. The result for TGAGGCACGTGCATGG reads -1.13 kJ/mol. Take TTTTACACGTGTTTTC: the “relative binding free energy” value amounted to 0.377 kJ/mol. For TATTACACGTGATAGG, the “relative binding free energy” value was determined as 0.753 kJ/mol.

As for TATAGCACGTGGGCGT, the “relative binding free energy” value is -0.586 kJ/mol. In the case of TATATCACGTGTGGTT it was 0.962 kJ/mol; in that of TCTTTCACGTGTCGGT, 1.09 kJ/mol; in that of CGATTCACGTGTTAGT, 0.962 kJ/mol. In the case of TAAAGCACGTGGCTGG it was -0.879 kJ/mol; in that of GATGTCACGTGGGGCA, -0.586 kJ/mol. In the case of CTTGGCACGTGTTTAA it was 0.126 kJ/mol; in that of ATTAGCACGTGAAGGA, 0.879 kJ/mol.

For the origin of these results see the BET-seq Pho4 binding data (Le et al. 2018).
